The list shows a part of the results.

For the test, the target named is T1, OsWOX13 (Oryza sativa, UniProt Q5QMM3 1-267).
T1 sequence: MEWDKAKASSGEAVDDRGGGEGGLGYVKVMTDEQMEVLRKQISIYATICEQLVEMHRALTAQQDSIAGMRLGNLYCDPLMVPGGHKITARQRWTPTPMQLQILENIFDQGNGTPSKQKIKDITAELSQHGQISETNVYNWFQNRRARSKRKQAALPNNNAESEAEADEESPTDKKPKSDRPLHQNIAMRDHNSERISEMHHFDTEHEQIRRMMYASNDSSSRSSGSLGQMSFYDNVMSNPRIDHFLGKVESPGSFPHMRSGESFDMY
Description: protein-binding microarray (RPBM); PBS, 2% BSA, 51.3 ng/ul salmon testes DNA, 50 uM zinc acetate, 200 nM TF, 25 C, 1 h; high values mean tight binding. The settings on record: protein: recombinant; tags: N-terminal polyhistidine and DsRed monomer fusion (pET32a); label: CyDye5-dUTP incorporated in the synthesized complementary strand; 3' TTTTT single-stranded linker to array surface; dsDNA, one strand shown. An outline of the steps:
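Using Ni–NTA, transcription factors fused N-terminally to polyhistidine and DsRed were purified after expression in E. coli BL21-CodonPlus. These were incubated at 200 nM with a blocked, double-stranded custom Agilent array for 1 h at 25 °C in a buffer containing 50 µM zinc acetate, and the array was washed. The binding signal is per-feature fluorescence intensity (arbitrary units) on an Axon 4000B scanner.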
“TAAGATGACAAATTGTCACGGTAATAATAAAATGACTAGTCGGAGTCACCTAGTGCAG”: the binding signal was 9250 fluorescence intensity (a.u.).

In the case of “TTAATTACTGGTTAACCAATGGTGCAATCCGCTGCCGGAGCGGAGTCACCTAGTGCAG”, the binding signal was 5630 fluorescence intensity (a.u.).

With “TTTGGGTGATTATCTGATGATGCTATGGTTTGGATACAATCGGAGTCACCTAGTGCAG”, the binding signal was 16100 fluorescence intensity (a.u.).

As for “CTAAGTACAATTAGTGAATTTGACAATCAAGTGCTACTGTCGGAGTCACCTAGTGCAG”, the binding signal is 12200 fluorescence intensity (a.u.). Regarding “ATGGGCCACGGGCCCACGGACCATACGCATAGGATTCAACCGGAGTCACCTAGTGCAG”, the binding signal was 59500 fluorescence intensity (a.u.). Turning to “TCATAAATTTTGATAATTTGATCCTTTGTAAAACTATTTTCGGAGTCACCTAGTGCAG”, the binding signal is 14000 fluorescence intensity (a.u.). With “CTAATATCAGATTTGATTAATGTAACAAGGATCGATACAACGGAGTCACCTAGTGCAG” the figure was 13000 fluorescence intensity (a.u.). Take “GGGGAGACAATTACATTGAGATTTGTAAAAGTTAAGAGCACGGAGTCACCTAGTGCAG”: the binding signal is 5050 fluorescence intensity (a.u.). On to “TTGACAGCAGCATAATTAAAGCCTATTTGAACACGAATCACGGAGTCACCTAGTGCAG”, for which the binding signal was 10500 fluorescence intensity (a.u.).

For “TGGGTAGGGGCAGTTAATTGGGAGGGAATTCCTCCTTCACCGGAGTCACCTAGTGCAG”, the binding signal was 8890 fluorescence intensity (a.u.). Regarding “ATCGACTGATTGTTCGTTCCTTGTCGAAACTCCCAACTTCCGGAGTCACCTAGTGCAG”, the binding signal is 19700 fluorescence intensity (a.u.). With “TCCTTAATTTATTTCTAGACTGTAAGAGCAAATGTGGAGGCGGAGTCACCTAGTGCAG” the figure was 38900 fluorescence intensity (a.u.); with “TACTCCCAATTAAGGCATTATAAGTAATGACCTTGCACCCCGGAGTCACCTAGTGCAG”, 5470 fluorescence intensity (a.u.). With “ACTTGACTGACCGGACTAGAGAGAGATCCAAAGAGTAGATCGGAGTCACCTAGTGCAG” the figure was 12500 fluorescence intensity (a.u.).

Turning to “GGTCAATTAGAGAGGACAAATGATGTACATGATGGTGGCACGGAGTCACCTAGTGCAG”, the binding signal is 16000 fluorescence intensity (a.u.). For “AGCCAATTAGTTTGCTCTCTAGCTAGCTTATTATTGTTTACGGAGTCACCTAGTGCAG”, the binding signal is 5260 fluorescence intensity (a.u.). With “CAACTATTGTATTAATTGGTTATTAAATATTGGTTATAGACGGAGTCACCTAGTGCAG” the figure was 6690 fluorescence intensity (a.u.); with “GCCTAATTGTTTTATAATTTGACAACGTGGTGATACAATACGGAGTCACCTAGTGCAG”, 35600 fluorescence intensity (a.u.); with “ATTATAATTTTAGTTCAGTATAACATATTTGCTTGCATTCCGGAGTCACCTAGTGCAG”, 5860 fluorescence intensity (a.u.). With “CCAAAATAATAAATTTAATTACAAGTAGAGTACTATTTGTCGGAGTCACCTAGTGCAG” the figure was 25800 fluorescence intensity (a.u.). With “TAATACTGAATTAATCATGTGATAATGAACCATTTCGTTTCGGAGTCACCTAGTGCAG” the figure was 4840 fluorescence intensity (a.u.); with “ACAAAGATTTGATGGGTAACATGCTTTTATCCCCTGTTAACGGAGTCACCTAGTGCAG”, 5960 fluorescence intensity (a.u.); with “CTCCGGCCTTTTAATTGGTGTTCTTGTTGGGCCGAAATGTCGGAGTCACCTAGTGCAG”, 6130 fluorescence intensity (a.u.).

As for “TTGATCATCTTTCAATCCCCGGATTTAAATTCTAAGCTAACGGAGTCACCTAGTGCAG”, the binding signal was 4420 fluorescence intensity (a.u.). With “CGATTATTGATTTGATGAAACTAATTTAGTATTATAAATACGGAGTCACCTAGTGCAG” the figure was 24200 fluorescence intensity (a.u.); with “TGTGATTGGTTGTTCTTGGTTTACTTCACCCTGTTGCTTCCGGAGTCACCTAGTGCAG”, 52000 fluorescence intensity (a.u.).

In the case of “TGAGATTGAATGACGCCATGAAATCTGAATTTATTGAGTTCGGAGTCACCTAGTGCAG”, the binding signal is 36500 fluorescence intensity (a.u.). With “TCTCAGAACGATCACAAATTAACGGCCCGGATTGGCCCAACGGAGTCACCTAGTGCAG”, the binding signal is 3360 fluorescence intensity (a.u.). With “CACTATAGTTACAGTGTAATTACATGCAAGTTACAGTGTACGGAGTCACCTAGTGCAG” the figure was 5020 fluorescence intensity (a.u.); with “CATGGAAACTGCGAGATAAATTTATTAAGTCTAACTAATCCGGAGTCACCTAGTGCAG”, 6690 fluorescence intensity (a.u.). With “CCGCAATTATTGGCCCTTAATTGTGAGGTTAATCCGTGGCCGGAGTCACCTAGTGCAG” the figure was 60900 fluorescence intensity (a.u.); with “AGAATTAACAGGGGAAAACATACATGTAGTTCTACCACTACGGAGTCACCTAGTGCAG”, 4210 fluorescence intensity (a.u.); with “TCCTAGAGATTGGTGAAGTCACTTTAGGCGTCTCACTGTCCGGAGTCACCTAGTGCAG”, 4020 fluorescence intensity (a.u.). With “ACTATAATTTAAGATTGAAAATTTCAAAATTTGGTTGTGACGGAGTCACCTAGTGCAG” the figure was 38800 fluorescence intensity (a.u.). For “CCTCCTTTCTAAATTGATCATCATATAATACAATCCAAAACGGAGTCACCTAGTGCAG”, the binding signal was 6210 fluorescence intensity (a.u.). With “ATAAATTTATTCATTTATACTGTCGAATATTACCAGAAAACGGAGTCACCTAGTGCAG” the figure was 6630 fluorescence intensity (a.u.).

As to “ATAATTTATTCAAATAAGACGGACGATCAAACATTTGACACGGAGTCACCTAGTGCAG”, the binding signal is 6480 fluorescence intensity (a.u.). With “CTCTTCTATCCTCTTAATTTGACAGAATAATCCCAGATCTCGGAGTCACCTAGTGCAG” the figure was 7460 fluorescence intensity (a.u.); with “ATCAAAATTTAAACTTGATTTGGTTGGGGTGCGCCAGGCCCGGAGTCACCTAGTGCAG”, 35000 fluorescence intensity (a.u.); with “AGGAATTAACGTTGTGCTTGATTTCAGCTCGAGCTGCCGCCGGAGTCACCTAGTGCAG”, 4190 fluorescence intensity (a.u.). With “CACGTAATTTTGAATCGTTAAATCTATTACAAGATTTGTTCGGAGTCACCTAGTGCAG”, the binding signal is 21400 fluorescence intensity (a.u.). Regarding “CCTAATTACGCCATGATTTGATAATATGATGCTACAATAACGGAGTCACCTAGTGCAG”, the binding signal is 39600 fluorescence intensity (a.u.).

For the origin of these results see paper PMC7819943, “Rice protein-binding microarrays: a tool to detect cis-acting elements near promoter regions in rice”.
